Data published in patent publication US20150316556A1, “SSEA4 AND ST3GAL2 AS CHEMOTHERAPEUTIC DRUG RESPONSE BIOMARKERS” (Miltenyi Biotech GmbH, priority 2014, published 2015).

Tested on: purely adherent cell line derived from model HBCx-17
Conditions: purely adherent HBCx-17 derived cell line; increasing concentrations; n=4

COc1cccc2c1C(=O)c1c(O)c3c(c(O)c1C2=O)C[C@@](O)(C(=O)CO)C[C@@H]3O[C@H]1C[C@H](N)[C@H](O)[C@H](C)O1 [doxorubicin]
fraction of SSEA4 positive cells in the surviving population: significantly higher fraction of SSEA4 positive cells
